US20230391887A1 (CITY OF HOPE, published 2023)

Legend:
EGFR on MDA-MB-468 cells [1] = biological target: T1, EGFR on MDA-MB-468 cells (UniProt P00533); test: FACS on MDA-MB-468 cells
T1 construct: whole, on cells; also called EGFR positive MD-MBA-468 cells; untreated cells

EGFR on MDA-MB-468 cells [2] = biological target: T1, EGFR on MDA-MB-468 cells; test: fluorescence microscopy on MDA-MB-468 cells

B1: meditope-Fc (bivalent meditope-Fc construct, SEQ ID NO: 57) (Fc fusion)
chain: GCQFDLSTRRLRCGGSRSGGTSGGGSVPGSGSSGSTSGSGKSSEGSGQ[human IgG1 Fc and a few adjoining residues not written out]
notes: homodimer through the Fc; Alexa Fluor-labeled in the cell studies; also called MFC
- binding result (EGFR on MDA-MB-468 cells [1]): no binding

B2: tetravalent meditope-Fc (M4FC, SEQ ID NO: 58) (Fc fusion)
chain: GCQFDLSTRRLRCGGSRSGGTSGTGSTSGSGSSGSTSGSGKSSEGSGQAS[human IgG1 Fc and a few adjoining residues not written out]GGSRSGGTSSSSSGSGSGSSGSTSGSGSSGCQFDLSTRRLRCG
- binding result (EGFR on MDA-MB-468 cells [2]): no binding
